# Measured values: PubChem BioAssay AID1461 (National Center for Advancing Translational Sciences (NCATS), 2008)
# The whole screen tested about 220,000 compounds, of which about 2,300 (1%) were called active. The shares of active, inactive and inconclusive entries below differ from those in the screen. The call rests on the fitted dose curve; in most records, active means well fitted inhibition curve with a large enough effect; inconclusive means small, poorly fitted or top-dose-only effect, or effect the other way; inactive means no such curve, though single readings can be large or run the other way. A potency beside an inconclusive call is a rough fit, not a confirmed value.
# Molecular target: Neuropeptide S receptor (Homo sapiens) (UniProt Q6W5P4)
# Assay: qHTS Assay for Antagonists of the Neuropeptide S Receptor: cAMP Signal Transduction; further: nearly all actives have a fitted effect of over 50% in size
# Conditions: CHO-NPSR cells, cAMP TR-FRET, antagonist mode; activity change, negative = inhibition: at 38.3 µM (top of the series) unless noted
# On the % scale 0 is the no-effect control and ±100 the full control effect; potency means the concentration at half of the fitted maximal effect; tags describe the fitted curve by direction and shape.
# Sequence of UniProt Q6W5P4 (Q6W5P4 whole entry, looked up): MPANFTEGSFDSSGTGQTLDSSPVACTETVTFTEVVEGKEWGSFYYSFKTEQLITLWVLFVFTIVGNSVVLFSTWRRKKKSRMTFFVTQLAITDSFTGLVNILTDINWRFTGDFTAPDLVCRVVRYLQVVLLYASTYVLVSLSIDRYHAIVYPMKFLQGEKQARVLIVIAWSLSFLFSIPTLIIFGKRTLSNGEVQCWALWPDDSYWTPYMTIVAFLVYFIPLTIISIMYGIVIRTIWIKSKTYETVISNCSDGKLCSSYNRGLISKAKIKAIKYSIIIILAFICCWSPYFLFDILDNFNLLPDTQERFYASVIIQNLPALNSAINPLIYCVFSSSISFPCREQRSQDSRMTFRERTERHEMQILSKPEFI
Compound,Potency,"activity change, negative = inhibition"
Cc1[nH]nc(-c2ccc(O)cc2O)c1-c1ccc(Cl)cc1,"inconclusive: 10 µM [inhibitor, partial curve]",
Cc1ccccc1NC(=O)C1(NC(=O)c2cccc(N3C(=O)CSC3c3ccccc3)c2)CCCCC1 (centres undefined),"inconclusive: 15.8 µM [inhibitor, single point]",
COC(=O)c1cc(NC(=O)Cc2coc3cc(OC)ccc23)cc(C(=O)OC)c1,"inconclusive: 12.6 µM [inhibitor, single point]",
O=C(c1cccc(COCC(F)(F)C(F)F)c1)N1CCN(c2ccccc2)CC1,"inconclusive: 15.8 µM [inhibitor, partial curve, poor fit]",
COc1ccc(Nc2ncnc3c2cnn3Cc2ccccc2)cc1,"inconclusive: 5.01 µM [inhibitor, full curve]",
Cc1cccc(OCCn2cc(/C=N/NC(=O)c3ccncc3)c3ccccc32)c1,,inactive: 20.2%
O=C(CNC1CCCCCC1)Nc1ccccc1N1CCCCC1,"inconclusive: 10 µM [inhibitor, single point]",
Cc1ccc(CCNC(=O)c2nnn(-c3cc(C)cc(C)c3)c2N)cc1,"inconclusive: 25.1 µM [inhibitor, single point]",
CCOC(=O)Nc1cccc(OCC(=O)Nc2ccc(OC)cc2OC)c1,"inconclusive: 15.8 µM [inhibitor, single point]",
CCCCCCCCCCCCCCCCCCOC[C@H](COP(=O)([O-])OCC[N+](C)(C)C)OC,"inconclusive: 20 µM [inhibitor, single point]",
COc1ccc(/C=N/NC(=O)COc2ccccc2-c2ccccc2)cc1,"inconclusive: 10 µM [activator, partial curve]",
Cn1c(=O)n(C)c2cc(S(=O)(=O)N3CCOCC3)ccc21,,inactive: -0.835% [at 46.1 µM]
CC(/C=C1\SC(=S)N(NC(=O)c2cccc(O)c2)C1=O)=C\c1ccccc1,,inactive: -32.5%
Cc1cc(Cl)ccc1OCCCC(=O)N1CCCCC1,"inconclusive: 12.6 µM [inhibitor, partial curve]",
COc1ccccc1N1CCN(C(=O)/C=C/c2cccc([N+](=O)[O-])c2)CC1,,inactive: 19.6%
O=C(Nc1cccc(NC(=O)c2ccc(-c3cccc(Br)c3)o2)c1)c1ccco1,"inconclusive: 1.26 µM [inhibitor, full curve]",
C=C1CSc2nc(=O)c3c4c(sc3n21)CCC4,,inactive: 4.49% [at 46.1 µM]
Cn1nc(C(F)(F)F)c(/C=N/OC(=O)c2ccccc2Cl)c1SCc1ccccc1Cl,,inactive: -26.2% [at 46.1 µM]
CCOc1ccc(-c2nnc(N3CCCCC3)c3ccccc23)cc1,"inconclusive: 10 µM [inhibitor, partial curve]",
COCCN(Cc1cc2cc(C)c(C)cc2nc1Cl)C(=O)N1CCOCC1,,inactive: 2.84%
Cc1cc(NC(=O)c2ccc(S(=O)(=O)N3CCCC3)cc2)nc2c1c(=O)oc1ccccc12,"inconclusive: 1 µM [activator, single point]",
COc1ccc(C2C(=O)N(CCc3ccccc3)CC(=O)N2C2CCCCC2)cc1 (centres undefined),"inconclusive: 12.6 µM [inhibitor, single point]",
C=CCNCCCOc1ccc(Cl)cc1C(C)(C)C,"inconclusive: 25.1 µM [inhibitor, single point]",

Compound,Potency,"activity change, negative = inhibition"
CC(C)N1C(=O)CC2(CC[N+](C)(CCOC(=O)C(c3ccccc3)c3ccccc3)CC2)C1=O (centres undefined),"inconclusive: 12.6 µM [inhibitor, single point]",
O=C(Nc1ccccc1)Nc1ccc(C(=O)N2CCCC2)cc1,,inactive: 6.6%
Cn1c(=O)c2c(nc(SCCCC#N)n2Cc2ccccc2F)n(C)c1=O,,inactive: -4.58%
COc1ccc(OC)c(C2CC(c3c(-c4ccccc4)c4cc(Cl)ccc4[nH]c3=O)=NN2S(C)(=O)=O)c1 (centres undefined),"inconclusive: 10 µM [inhibitor, partial curve, poor fit]",
O=C(C1CCC(CNS(=O)(=O)c2cccc3cccnc23)CC1)N1CCc2ccccc21 (centres undefined),"inconclusive: 31.6 µM [inhibitor, single point]",
Cc1nc(-c2ccccn2)nc(N2CCOCC2)c1Cl,"inconclusive: 25.1 µM [activator, single point]",
CC(=O)Nc1ccc(Nc2cc(C)nc3c(-c4ccccc4)c(C)nn23)cc1,,inactive: -20.3% [at 46.1 µM]
Cc1ccc(-c2c[n+](CC(=O)Nc3ccccc3)c3n2CCC3)cc1,,inactive: -1.52%
Cc1nc(SCC(=O)NCc2ccc3c(c2)OCO3)c(C#N)c2c1CCCC2,"inconclusive: 7.94 µM [inhibitor, partial curve]",
Cc1ccc(-c2nnn(CC(=O)Nc3ccccc3N3CCOCC3)n2)cc1,,inactive: -20.7% [at 46.1 µM]
COc1cccc(OCC(O)CN2CCC(CN3C(=O)c4cccc5cccc(c45)C3=O)CC2)c1 (centres undefined),"inconclusive: 15.8 µM [inhibitor, single point]",
O=C(COC(=O)C1CC2C=CC1C2)Nc1ccc2c(c1)OC(F)(F)O2 (centres undefined),,inactive: 1.97% [at 46.1 µM]
O=[N+]([O-])c1ccc(OCc2cccc(COc3ccc([N+](=O)[O-])cc3)n2)cc1,,inactive: 3.5%
COc1ccc(CNC(=O)c2cc(SC)ccc2Cl)cc1OC,,inactive: 7.69%
Cc1nn2c(NCc3ccccn3)cc(C(C)C)nc2c1-c1ccccc1,"inconclusive: 12.6 µM [activator, partial curve]",
CC(C)Cn1c(=O)c(C(=O)NCc2ccccn2)c(O)c2ccccc21,"inconclusive: 10 µM [inhibitor, single point]",
CCCC1CCc2c(sc(N)c2C(N)=O)C1 (centres undefined),,inactive: -8.27% [at 46.1 µM]
COc1ccc(CCNC(C)=O)cc1,,inactive: -6.41% [at 46.1 µM]
Cc1ccc(OCc2n[nH]c(=S)n2Cc2ccccc2)cc1,"inconclusive: 10 µM [activator, partial curve]",
Cc1c(Cc2ccccc2)c(=O)oc2c(C)c(OCC(=O)Nc3ccc(C#N)cc3)ccc12,"inconclusive: 7.94 µM [activator, partial curve]",
COc1cccc(-n2c(SC)nnc2-c2c[nH]c3ccccc23)c1,"inconclusive: 12.6 µM [inhibitor, partial curve]",
NC(=NCc1ccc(Cl)c(Cl)c1)NC(=O)c1nc(Cl)c(N)nc1N,,inconclusive: -30.7% [inhibitor] [at 46.1 µM]
Cc1cc(C(C)c2ccccc2)c(O)c(CN2CCOCC2)c1C (centres undefined),"inconclusive: 12.6 µM [inhibitor, single point]",

Compound,Potency,"activity change, negative = inhibition"
N#Cc1cn(-c2ccccc2)nc1C(=O)c1ccccc1,"inconclusive: 15.8 µM [inhibitor, single point]",
COc1ccccc1CN1C[C@@H]2C[C@@H](C3=Cc4cc(Cl)ccc4OC3)N3CCC[C@@]23C1=O,"inconclusive: 10 µM [activator, single point]",
CCC1(C)Cc2c(sc3c2c(=O)n(C)c2nnc(SCc4ccc5c(c4)OCO5)n32)CO1 (centres undefined),"inconclusive: 7.94 µM [inhibitor, partial curve, poor fit]",
CCN(CCCNS(=O)(=O)c1ccc2c(c1)CCN2C(C)=O)c1cccc(C)c1,,inconclusive: -30% [inhibitor] [at 46.1 µM]
Cc1cccn2c(=O)c(C=O)c(N3CCCCCC3)nc12,,inactive: 3.83% [at 46.1 µM]
c1ccc(CN(Cc2ccco2)C(c2ccncc2)c2nnnn2C2CCCC2)cc1 (centres undefined),"inconclusive: 12.6 µM [inhibitor, single point]",
Clc1ccc(C2[C@H]3CN(Cc4cccnc4)[C@H](c4ccccc4)C34CC2(c2cccnc2)C4)cn1 (some centres undefined),"inconclusive: 12.6 µM [inhibitor, single point]",
CCCOC(=O)c1ccc(Oc2cn[nH]c2-c2ccc(OCC)cc2O)cc1,"inconclusive: 25.1 µM [inhibitor, single point]",
COc1ccc(-c2csc(NC(=O)COc3ccc(N(C)S(=O)(=O)c4ccc(C)cc4)cc3)n2)cc1,,inactive: 7.81%
CCC(c1nnnn1Cc1ccco1)N(CCc1ccccc1)Cc1cc2cc(C)ccc2[nH]c1=O (centres undefined),"inconclusive: 10 µM [inhibitor, partial curve]",
CCN(CC)C(=O)c1sc(NC(=O)Cc2ccccc2)c(C#N)c1C,,inactive: -8.33% [at 46.1 µM]
Cc1cccc(N2CCN(C(=O)CCS(=O)(=O)c3ccc(Br)cc3)CC2C)c1 (centres undefined),,inactive: -5.28%
COc1ccc(N2CCN(CCCNC(=O)CC3Oc4ccc(C)cc4NC3=O)CC2)cc1 (centres undefined),"inconclusive: 12.6 µM [inhibitor, single point]",
COc1ccc(C(=O)N=S2CCN(C(=O)c3ccc(Cl)cc3)CC2)cc1,,inactive: -6.84%
Cc1ccc(NC(=O)c2cc(S(=O)(=O)N3CCCCC3)ccc2N2CCOCC2)cc1F,"inconclusive: 0.01 µM [inhibitor, full curve, poor fit]",
CCOC(=O)c1ccc(NC(=O)COc2ccccc2CNCCc2ccccc2)cc1,"inconclusive: 12.6 µM [inhibitor, single point]",
CCOC(=O)c1c(NC(=O)c2cccs2)sc(CC)c1-c1cccs1,"inconclusive: 10 µM [inhibitor, single point]",
Cc1cc(C)n(-c2nc(C)nc(NCc3ccccc3)n2)n1,"inconclusive: 12.6 µM [activator, partial curve, poor fit]",
Cc1ccc(C(=O)/C=C/c2cn(CN3CCN(C)CC3)c3ccccc23)cc1,"inconclusive: 20 µM [inhibitor, single point]",
Cn1nc(C(F)(F)F)c(-c2ccc(Br)cc2)c1NC(=O)Nc1ccc(F)cc1F,"inconclusive: 25.1 µM [inhibitor, single point]",
O=C(Nc1ccc(Cl)cc1)N1CCN(c2ccccc2)CC1,,inactive: -1.48%
Cc1ccc2oc3c(c(=O)c2c1)C(c1cccc(O)c1)N(c1ccccn1)C3=O (centres undefined),active: 10 µM,
CN(C(=O)COC(=O)c1cc(NS(=O)(=O)c2cc([N+](=O)[O-])ccc2Cl)ccc1O)C1CCCCC1,,inactive: -19.4%
